# Laboratory results published in PubChem BioAssay (NCATS).
# “And” between values parts separate entries of the source, which are not always exact repeats. Equal entries are not always repeated. The inconclusive results got no clear call from the source; some entries with a clear call stand among them for comparison. For part of these data: Potencies beside an inconclusive call are fits to weak or partial responses and may not hold up. The source made the active and inactive calls. Calls come from the whole dose curve; as a rule, active = well fitted curve in the direction sought with a large enough effect; inconclusive = small, poorly fitted or top-dose-only effect, or another doubt; inactive = no such curve, though single readings can be large; an effect the other way counts as inactive or inconclusive.
# What was measured:
# Hek293T = test: Primary qHTS to identify gynecologic anti-cancer compounds using libraries of approved drugs and bioactive compounds (AID 1345084); details: Gynecologic cancer cell panel viability, ATPlite luminescence, 48 h, control line for the selectivity index; series mostly up to 57.5 µM; note: nearly all actives have a fitted effect of over 55% in size
# Summary of the method: (§1)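 Cells, 1,000 per well, were allowed to settle for 16 h at 37 C before compound addition. Five concentrations were tested for 48 h, and viability was read by ATPlite luminescence after 15 min at room temperature.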
# JEG-3 = test: as above; details: Gynecologic cancer cell panel viability, ATPlite luminescence, 48 h; series mostly up to 57.5 µM
# Summary of the method: as §1
# OV90 = test: as above; details: Gynecologic cancer cell panel viability, ATPlite luminescence, 48 h; series mostly up to 57.5 µM
# Summary of the method: as §1
# PA-1 = test: as above; details: Gynecologic cancer cell panel viability, ATPlite luminescence, 48 h; series mostly up to 57.5 µM
# Summary of the method: as §1
# SKOV3 = test: as above; details: Gynecologic cancer cell panel viability, ATPlite luminescence, 48 h; series mostly up to 57.5 µM
# Summary of the method: as §1
# Tov-21-G = test: as above; details: Gynecologic cancer cell panel viability, ATPlite luminescence, 48 h; series mostly up to 57.5 µM
# Summary of the method: as §1
# Tov112D = test: as above; details: Gynecologic cancer cell panel viability, ATPlite luminescence, 48 h; series mostly up to 57.5 µM
# Summary of the method: as §1
# [1] = qHTS assay to identify inhibitors of the type 1 interferon - major histocompatibility complex class I in skeletal muscle: Counter screen cell viability and HiBit confirmation (AID 1347412); details: iHSKM muscle cells + IFN-b, HiBiT or CellTiter-Glo, 24 h; for activity change, negative = inhibition: at 45.9 µM (top of the series); for all read-outs here: nearly all actives have a fitted effect of over 60% in size
# Summary of the method: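 After 24 h with human IFN-beta (4 ng/ml) and compound titrations (top 46 uM final, 1:3, 12 points), HLA-B HiBit myoblasts were lysed for either Nano-Glo HiBiT luminescence or CellTiter Glo viability on paired plates.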
# astro = test: Drug repurposing screens with cells derived from glioblastoma tumor samples (AID 1345199); details: viability, ATP luminescence, 48 h; series mostly up to 45.9 µM; note: nearly all actives have a fitted effect of over 40% in size
# Summary of the method: (§2)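 Four patient lines of CD133+ GBM neurospheres were screened at several concentrations; hits were retested in those lines plus three slower-growing GBM lines, using 48-hour treatment and ATP-based viability.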
# [2] = as above; details: GBM patient neurospheres viability, ATP luminescence, 48 h; Potency: tumour line A unless noted; activity, negative = cell killing: at 46 µM (top of the series), tumour line A unless noted
# Summary of the method: as §2
# % is set by controls: 0 for no effect and ±100 for the full control effect; potency is the fitted concentration of half-maximal effect; tags give direction and shape of the fitted curve.
compound,measurement,setting,value
COc1ccccc1N1CCN(CCN(C(=O)C2CCCCC2)c2ccccn2)CC1,Potency,Hek293T,"inconclusive: 28.2 µM [cytotoxic, partial curve, poor fit]"
same,Potency,JEG-3,"inconclusive: 39.8 µM [rising, single point]"
COc1ccccc1N1CCN(CC(O)COc2cccc3ccccc23)CC1 (configuration not stated),Potency,Hek293T,active: 31.6 µM
same,Potency,JEG-3,"inconclusive: 3.98 µM [cytotoxic, single point]"
same,Potency,OV90,"inconclusive: 11.2 µM [cytotoxic, partial curve, poor fit]"
same,Potency,PA-1,active: 3.55 µM
same,Potency,SKOV3,active: 1.78 µM
same,Potency,Tov-21-G,"inconclusive: 0.282 µM [cytotoxic, full curve, poor fit]"
same,Potency,Tov112D,"inconclusive: 3.16 µM [cytotoxic, partial curve, poor fit]"
CN(C)C(=O)[C@H](O)[C@H](Cc1ccccc1)NC(=O)c1cc2cc(Cl)ccc2[nH]1,Potency,Hek293T,"inconclusive: 10 µM [rising, partial curve, poor fit]"
OCCCNc1cc(-c2ccnc(Nc3cccc(Cl)c3)n2)ccn1,Potency,Hek293T,active: 0.199 µM
same,Potency,JEG-3,"inconclusive: 0.631 µM [cytotoxic, full curve, poor fit]"
same,Potency,OV90,"inconclusive: 1.78 µM [cytotoxic, full curve, poor fit]"
same,Potency,PA-1,active: 0.1 µM
same,Potency,SKOV3,"inconclusive: 0.794 µM [cytotoxic, full curve, poor fit]"
same,Potency,Tov112D,active: 0.316 µM
same,"activity change, negative = inhibition",[1]; Viability,inactive: 15.1%
COc1ccc(-c2nc3ccc(C4=NNC(=O)CC4C)cc3[nH]2)cc1 (configuration not stated),Potency,Hek293T,"inconclusive: 39.8 µM [cytotoxic, single point]"
same,Potency,JEG-3,"inconclusive: 35.5 µM [cytotoxic, single point]"
same,Potency,OV90,"inconclusive: 28.2 µM [cytotoxic, single point]"
same,Potency,PA-1,"inconclusive: 22.4 µM [cytotoxic, partial curve, poor fit] and inconclusive: 39.8 µM [cytotoxic, single point]"
same,Potency,SKOV3,"active: 35.5 µM and inconclusive: 8.91 µM [cytotoxic, partial curve, poor fit]"
same,Potency,Tov-21-G,"inconclusive: 35.5 µM [cytotoxic, single point] and inconclusive: 31.6 µM [cytotoxic, single point]"
same,Potency,Tov112D,"inconclusive: 39.8 µM [cytotoxic, single point]"
same,Potency,astro,active: 11.2 µM
COc1ccccc1OCCNCC(O)COc1cccc2[nH]c3ccccc3c12 (configuration not stated),Potency,Hek293T,"inconclusive: 39.8 µM [cytotoxic, single point]"
same,Potency,JEG-3,"inconclusive: 31.6 µM [cytotoxic, single point]"
same,Potency,OV90,"inconclusive: 25.1 µM [cytotoxic, single point]"
same,Potency,PA-1,inactive
same,Potency,[2],active: 11.2 µM
COc1cc([C@@H]2c3cc4c(cc3[C@H](O)[C@H]3COC(=O)[C@H]23)OCO4)cc(OC)c1OC,Potency,Hek293T,inconclusive: 5.62 µM
same,Potency,JEG-3,"inconclusive: 0.1 µM [cytotoxic, full curve, poor fit]"
same,Potency,OV90,active: 0.355 µM
same,Potency,PA-1,inconclusive: 8.91e-05 µM
same,Potency,SKOV3,"inconclusive: 0.794 µM [cytotoxic, full curve, poor fit]"
same,Potency,Tov112D,inconclusive: 0.1 µM
same,Potency,astro,"inconclusive: 0.0398 µM [inhibitor, full curve, poor fit]"
same,Potency,[1]; HiBiT,"inconclusive: 0.0352 µM [inhibitor, full curve]"
same,Potency,[1]; Viability,"inconclusive: 0.0394 µM [cytotoxic, full curve]"
C1Cc2[nH]nc(-c3nn[nH]n3)c2C1,Potency,Hek293T,inactive
O=C(c1cncc(Br)c1)N1CCC(N2CCCC2)CC1,Potency,Hek293T,inactive
same,Potency,JEG-3,inactive
CN(C)C(=O)C(CCN1CCC(O)(c2ccc(Cl)cc2)CC1)(c1ccccc1)c1ccccc1,Potency,Hek293T,"inconclusive: 28.2 µM [cytotoxic, partial curve, poor fit]"
same,Potency,JEG-3,"inconclusive: 39.8 µM [cytotoxic, single point]"
same,Potency,PA-1,"inconclusive: 35.5 µM [cytotoxic, single point]"
same,Potency,SKOV3,"inconclusive: 39.8 µM [cytotoxic, single point]"
same,Potency,Tov-21-G,"inconclusive: 39.8 µM [cytotoxic, single point]"
same,Potency,Tov112D,"inconclusive: 39.8 µM [cytotoxic, single point]"
same,Potency,astro,"inconclusive: 22.4 µM [inhibitor, partial curve]"
N#C[C@H]1C[C@H]2C[C@@H]2N1C(=O)[C@@H](N)C12CC3CC(CC(O)(C3)C1)C2,Potency,Hek293T,"inconclusive: 28.2 µM [cytotoxic, single point]"
same,Potency,JEG-3,"inconclusive: 39.8 µM [cytotoxic, single point]"
same,Potency,OV90,"inconclusive: 35.5 µM [cytotoxic, single point]"
same,Potency,PA-1,"inconclusive: 15.8 µM [cytotoxic, partial curve, poor fit]"
same,Potency,SKOV3,"inconclusive: 39.8 µM [cytotoxic, single point]"
same,Potency,Tov-21-G,"inconclusive: 31.6 µM [cytotoxic, single point]"
same,Potency,Tov112D,"inconclusive: 28.2 µM [cytotoxic, single point]"
same,Potency,[2],inactive
CNC1CCC(N(Cc2cccc(-c3ccncc3)c2)C(=O)c2sc3c(F)ccc(F)c3c2Cl)CC1 (configuration not stated),Potency,Hek293T,"inconclusive: 28.2 µM [cytotoxic, single point]"
same,Potency,JEG-3,inactive
same,Potency,OV90,"inconclusive: 25.1 µM [cytotoxic, single point]"
same,Potency,PA-1,"inconclusive: 39.8 µM [cytotoxic, single point]"
same,Potency,Tov-21-G,"inconclusive: 28.2 µM [cytotoxic, single point]"
same,"activity change, negative = inhibition",[1]; HiBiT,inactive: -27.3%
same,Potency,[1]; Viability,"inconclusive: 35.2 µM [cytotoxic, partial curve]"
O=C(Nc1cccc(Br)c1)c1cccc(S(=O)(=O)N2CCCCCC2)c1,Potency,Hek293T,"inconclusive: 20 µM [cytotoxic, single point]"
same,Potency,OV90,"inconclusive: 39.8 µM [cytotoxic, single point]"
same,Potency,PA-1,"inconclusive: 35.5 µM [cytotoxic, single point]"
same,Potency,SKOV3,"inconclusive: 10 µM [cytotoxic, single point]"
CS(=O)(=O)N1CCN(Cc2cc3nc(-c4cccc5[nH]ncc45)nc(N4CCOCC4)c3s2)CC1,Potency,Hek293T,active: 2.51 µM
same,Potency,JEG-3,"inconclusive: 3.98 µM [cytotoxic, single point]"
same,Potency,OV90,"inconclusive: 11.2 µM [cytotoxic, partial curve]"
same,Potency,PA-1,"inconclusive: 2.51 µM [cytotoxic, full curve, poor fit]"
same,Potency,SKOV3,active: 2.51 µM
same,Potency,Tov-21-G,"inconclusive: 7.08 µM [cytotoxic, partial curve, poor fit]"
O=C(Nc1cccnc1)N1CCC(Cc2cccc(Oc3ccc(C(F)(F)F)cn3)c2)CC1,Potency,Hek293T,"inconclusive: 39.8 µM [cytotoxic, single point]"
same,Potency,JEG-3,"inconclusive: 31.6 µM [cytotoxic, partial curve, poor fit]"
same,Potency,OV90,"inconclusive: 14.1 µM [cytotoxic, partial curve]"
same,Potency,SKOV3,"inconclusive: 31.6 µM [cytotoxic, single point]"
same,Potency,Tov-21-G,"inconclusive: 39.8 µM [rising, single point]"
same,Potency,Tov112D,"inconclusive: 28.2 µM [cytotoxic, partial curve, poor fit]"
COC1=C(OC)C(=O)C(CCCCCCCCCCO)=C(C)C1=O,Potency,Hek293T,"inconclusive: 39.8 µM [cytotoxic, single point]"
same,Potency,JEG-3,"inconclusive: 39.8 µM [cytotoxic, single point]"
same,Potency,PA-1,"inconclusive: 39.8 µM [cytotoxic, single point]"
same,Potency,Tov112D,"inconclusive: 39.8 µM [cytotoxic, single point]"
same,Potency,astro,"inconclusive: 20 µM [inhibitor, partial curve]"
CCOc1ccc(Nc2nc(-c3c(C)nc4ccccn34)cs2)cc1,Potency,Hek293T,"inconclusive: 0.316 µM [cytotoxic, full curve]"
same,Potency,JEG-3,"inconclusive: 1.58 µM [cytotoxic, full curve]"
same,Potency,OV90,active: 1.41 µM
same,Potency,PA-1,"inconclusive: 0.112 µM [cytotoxic, full curve, poor fit]"
same,Potency,SKOV3,inconclusive: 0.631 µM
same,Potency,Tov-21-G,active: 0.316 µM
same,Potency,Tov112D,active: 0.158 µM
same,Potency,[1]; HiBiT,"inconclusive: 0.0557 µM [inhibitor, full curve]"
same,Potency,[1]; Viability,"inconclusive: 0.198 µM [cytotoxic, full curve, poor fit]"
Cc1cc(C2CCCCC2)n(O)c(=O)c1,Potency,Hek293T,active: 7.08 µM
same,Potency,JEG-3,"inconclusive: 0.891 µM [cytotoxic, single point]"
same,Potency,OV90,"inconclusive: 2.51 µM [cytotoxic, full curve, poor fit]"
same,Potency,PA-1,active: 2 µM
same,Potency,SKOV3,active: 10 µM
same,Potency,Tov-21-G,"inconclusive: 11.2 µM [cytotoxic, partial curve, poor fit]"
same,Potency,Tov112D,active: 7.08 µM
same,Potency,astro,"inconclusive: 0.501 µM [inhibitor, full curve]"
COC(=O)C1=C(C)NC(C)=C(C(=O)OCCCN2CCC(c3ccccc3)(c3ccccc3)CC2)C1c1cccc([N+](=O)[O-])c1 (configuration not stated),Potency,Hek293T,"inconclusive: 35.5 µM [cytotoxic, single point]"
same,Potency,JEG-3,inactive
same,Potency,OV90,"inconclusive: 31.6 µM [cytotoxic, single point]"
same,Potency,PA-1,"inconclusive: 35.5 µM [cytotoxic, single point]"
same,Potency,SKOV3,"inconclusive: 22.4 µM [cytotoxic, single point]"
same,Potency,Tov-21-G,inactive
same,Potency,Tov112D,inactive
same,"activity change, negative = inhibition",[1]; HiBiT,inactive: 4.03%
same,"activity change, negative = inhibition",[1]; Viability,inactive: -24.5%
Cc1cc(=O)c2c(O)c3c(O)cc(=O)c4c3c3c(cc(O)c1c23)C(C)(C)C=4O,Potency,Hek293T,active: 2 µM
same,Potency,JEG-3,"inconclusive: 3.55 µM [cytotoxic, full curve, poor fit]"
same,Potency,OV90,"inconclusive: 14.1 µM [cytotoxic, single point]"
same,Potency,PA-1,active: 2.82 µM
same,Potency,SKOV3,active: 3.55 µM
same,Potency,Tov112D,active: 2.24 µM
